Source: the BET-seq Pho4 binding data (Le et al. 2018)
The other results are listed elsewhere or left out. The energies were worked out here from pooled read counts, against the library average; single values are noisy.

Target: T1, Pho4 (S. cerevisiae) (UniProt P07270)
T1 sequence: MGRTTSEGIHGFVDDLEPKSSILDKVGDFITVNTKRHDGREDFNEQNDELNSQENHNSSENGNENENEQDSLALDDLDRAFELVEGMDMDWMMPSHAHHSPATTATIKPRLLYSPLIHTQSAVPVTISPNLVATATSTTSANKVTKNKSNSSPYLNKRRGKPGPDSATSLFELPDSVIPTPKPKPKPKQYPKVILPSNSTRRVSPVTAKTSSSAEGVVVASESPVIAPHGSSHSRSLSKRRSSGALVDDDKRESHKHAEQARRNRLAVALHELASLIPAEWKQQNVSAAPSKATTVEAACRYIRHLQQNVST
Experiment: relative binding free energy (BET-seq); higher = weaker binding
Conditions: reference: library average

Sequence	relative binding free energy
AGTGTCACGTGGTGTC	-0.02 kcal/mol
GGGCGCACGTGTGAGG	-0.02 kcal/mol
GGTCGCACGTGGCTGT	-0.14 kcal/mol
GAGTGCACGTGGGAGT	-0.01 kcal/mol
TTTATCACGTGCCTTG	0.12 kcal/mol
ATTGTCACGTGGGAAG	-0.05 kcal/mol
GAGGGCACGTGGCAGG	-0.14 kcal/mol
GGAGGCACGTGTGGCA	-0.06 kcal/mol
ACGGTCACGTGTGGGT	0.15 kcal/mol
GTCTACACGTGGGAGG	-0.01 kcal/mol
GGCCTCACGTGAGTGT	0.31 kcal/mol
TATATCACGTGTGAGG	0.24 kcal/mol
TGTTGCACGTGGCGCG	-0.13 kcal/mol
TTGTGCACGTGTGACA	0.03 kcal/mol
GGATCCACGTGGTGCG	0.1 kcal/mol
CTGGGCACGTGGGTTG	-0.22 kcal/mol
TCCGTCACGTGGTGTT	0.08 kcal/mol
ATTGTCACGTGGTGAG	0.07 kcal/mol
GGCGGCACGTGGGCTC	-0.08 kcal/mol
TTTAGCACGTGTTAAA	-0.11 kcal/mol
GGGGCCACGTGTGTCT	-0.05 kcal/mol
GTTGTCACGTGTTGTT	0.22 kcal/mol
TTTGTCACGTGATTGG	0.17 kcal/mol

Sequence	relative binding free energy
CTGGGCACGTGGAAAT	0.1 kcal/mol
AATGTCACGTGATGGA	0.29 kcal/mol
CGTTGCACGTGTCAGG	-0.06 kcal/mol
GTTAACACGTGAGGGA	0.17 kcal/mol
CAAGGCACGTGGGCGT	-0.28 kcal/mol
GATTACACGTGAGAGG	0.31 kcal/mol
CTTGACACGTGTTATT	0.08 kcal/mol
GGTCACACGTGGGGTG	-0.06 kcal/mol
TGTTGCACGTGTGTGC	0.1 kcal/mol
ATTAACACGTGATATA	0.14 kcal/mol
ATTGTCACGTGTACGA	0.05 kcal/mol
TTATGCACGTGGGAAA	0.13 kcal/mol
TGGGACACGTGGAAAT	0.26 kcal/mol
GAGGGCACGTGGGCGC	-0.28 kcal/mol
GTCGACACGTGAGGGT	0.24 kcal/mol
GAGTACACGTGGGCTT	-0.06 kcal/mol
AAGTCCACGTGATTTG	0.29 kcal/mol
GATTCCACGTGGTGTG	-0.02 kcal/mol
GCGGGCACGTGAGATA	0.31 kcal/mol
TGATACACGTGGGTTC	0.02 kcal/mol
ATATTCACGTGCTTTA	0.12 kcal/mol
TTGCGCACGTGGGCTT	-0.28 kcal/mol
GGTTTCACGTGAAGAA	0.5 kcal/mol

Sequence	relative binding free energy
AGTGGCACGTGTGAGC	0.06 kcal/mol
TTGTGCACGTGTCTAT	-0.08 kcal/mol
ATTAGCACGTGTACGT	-0.03 kcal/mol
CTTGTCACGTGGGGTT	0.03 kcal/mol
GTTTGCACGTGTATGG	0.08 kcal/mol
TCTATCACGTGGATGT	0.05 kcal/mol
TATTACACGTGTTCGG	0.15 kcal/mol
TTGTCCACGTGCAGTT	0.03 kcal/mol
GGGTCCACGTGGGAAA	0.15 kcal/mol
ATTTACACGTGGCGTG	-0.03 kcal/mol
ATACACACGTGTGGGG	0.03 kcal/mol
GTTTCCACGTGTTAGG	0.17 kcal/mol
AAGTACACGTGACGGG	0.25 kcal/mol
TAGGTCACGTGTTGCA	0.09 kcal/mol
TGTGACACGTGATTGA	0.19 kcal/mol
GTTATCACGTGGGAGT	0.13 kcal/mol
ATTTACACGTGGGGAC	-0.04 kcal/mol
GGGCGCACGTGCTGGT	-0.13 kcal/mol
TTTAGCACGTGGTACT	-0.23 kcal/mol
GATCTCACGTGTGGTT	0.42 kcal/mol
ACAAGCACGTGTGGGT	-0.04 kcal/mol
GAGTTCACGTGAGGAT	0.61 kcal/mol
TCGTGCACGTGCCGGG	-0.08 kcal/mol

Sequence	relative binding free energy
GGAGGCACGTGTCGCG	-0.15 kcal/mol
TATGACACGTGTAGGC	0.07 kcal/mol
GTGGGCACGTGTGCGT	-0.07 kcal/mol
ATAAGCACGTGAGGTT	0.16 kcal/mol
CTGGGCACGTGGTTGG	-0.07 kcal/mol
TTAGGCACGTGAAGGA	0.14 kcal/mol
TTTGTCACGTGAGGCC	0.33 kcal/mol
ATCAGCACGTGTGTTG	-0.14 kcal/mol
ATGGGCACGTGGGAGT	-0.16 kcal/mol
TTTCGCACGTGCGGCG	0.09 kcal/mol
TGATTCACGTGTTCAG	0.32 kcal/mol
TGTTGCACGTGAGCTG	0.18 kcal/mol
TGCTGCACGTGGGTAT	-0.12 kcal/mol
ATAGGCACGTGCTTGG	-0.26 kcal/mol
TTAGTCACGTGGCTAT	-0.06 kcal/mol
TGCGTCACGTGCGTGG	0 kcal/mol
TAGAGCACGTGTTGAA	-0.13 kcal/mol
AAGGCCACGTGGTTAT	-0.08 kcal/mol
GGTTGCACGTGAGATG	0.28 kcal/mol
ATATGCACGTGATTGT	0.07 kcal/mol
ATAAGCACGTGGGCAG	-0.19 kcal/mol
TTTATCACGTGGGACG	0.21 kcal/mol
AAATGCACGTGGTCGG	-0.04 kcal/mol

Sequence	relative binding free energy
TTCGGCACGTGGGTGG	-0.25 kcal/mol
TTTAGCACGTGGGTTC	-0.09 kcal/mol
TTAGTCACGTGATTAG	0.21 kcal/mol
TTATACACGTGTCTAG	0.11 kcal/mol
GTTTTCACGTGGTAGG	0.27 kcal/mol
TTTGTCACGTGATAGC	0.24 kcal/mol
CCATGCACGTGGTAGG	0.05 kcal/mol
AAGGTCACGTGTGTTT	0.25 kcal/mol
GGTAACACGTGTTGGG	0.05 kcal/mol
AGGGCCACGTGTTTGT	-0.15 kcal/mol
TGTTGCACGTGGTTCC	-0.08 kcal/mol
AACTGCACGTGTATGG	-0.01 kcal/mol
TTGCGCACGTGGAGGC	0.07 kcal/mol
AGTATCACGTGAGTTA	0.32 kcal/mol
TTTAGCACGTGTGAGC	0 kcal/mol
GGTCGCACGTGGGTAT	-0.18 kcal/mol
ACAATCACGTGTGTGG	0.15 kcal/mol
TGAGGCACGTGAGCAT	0.08 kcal/mol
GGTTTCACGTGGTGTA	0.27 kcal/mol
TGTATCACGTGGGTAG	-0.04 kcal/mol
GGTAACACGTGTTCTG	0.13 kcal/mol
ATGGGCACGTGCTCTG	-0.12 kcal/mol
ACGATCACGTGGTGTT	0.03 kcal/mol
